Some of the results follow.
System: PF3D7_0420300 AP2 domain 1 (GST-tagged)
Assay: gcPBM binding intensity (ln(normalized median fluorescence intensity)); higher = stronger DNA binding
How it was run: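 Using an Agilent 4 × 180k array, primer-extended double-stranded 36-bp intergenic genomic probes and negative controls were exposed for 1 h to GST-fused P. falciparum DNA-binding domains expressed in E. coli. Binding was carried out in 1× PBS with 1% milk, 0.2 mg/ml BSA, 0.5% salmon testes DNA and 0.03% Triton X-100, and protein was detected with Alexa488 anti-GST antibody and a 488 nm scan. Binding intensity is the highest Masliner-normalised natural-log median intensity across replicate spots of either probe orientation.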

Sequence | gcPBM binding intensity (ln)
TAATAAAAAATATATACACACAAATAAATAAATAAA [CACACA_site4037] | 9.83
AATAGTCGTGTGCATACACACCTTAACTATAATATA [CACACA_site6636] | 9.38
AAGAAATAAAGCAAAACATGCACTCGAAAATGTTTT [TGCATGCA_site1014] | 9.41
TATTGTTAAAATGAATAATTAAAACAGTAATGAATA [XGTACX_negctrl_site170] | 9.18
TTAGCAACTATTACTACACACATTTTTATATAACTT [CACACA_site6762] | 9.67
ATGTCTAATTTTGATGCACACTTTTGTGCAATTAAA [CACACA_site5589] | 9.14
TATATATGTTTTTATGTACACACTTTTAACCTAAGA [CACACA_site1149] | 9.38
CGCATGCAATGTTAATGTACATATATATATATATGT [XGTACX_site3316] | 9.14
TTTTTTTTTTTTTGATGTACAATTAATATTATAAAA [XGTACX_site6969] | 8.94
AGTAATAAATAATTTACACACATATTATATCATCAC [CACACA_site1890] | 9.7
CATTTTAAAGAAAATACACACAAAAATAGATATATA [CACACA_site6773] | 9.68
ATTTCTTTTTTATTGAGTACATATGACCATGTTCAA [XGTACX_site5365] | 9.3
GAAAAAAATGAAATTAGTACTTATCTTAAATTTTTA [XGTACX_site1018] | 8.8
AAAAATATATAATAAAGTACACATAAATGAATAAAT [XGTACX_site329] | 9.8
TAGTATAATATGAACACACACACACGCACAAAAAAA [CACACA_site7035] | 10.1
TGTAAGCACATACAAACACACAACATTATTTTTATC [CACACA_site2186] | 9.62
ATCGTTATATAAAAATGTACTTATAAATTGTATACA [XGTACX_site6664] | 9.2
CAACATTTGATAAACACACAGAAGTATAAATATATA [CACACA_site2365] | 9.53
AAAGGAAAAATCCAAGTGCATTATTATTTTCACAAA [GTGCAC_site9995] | 8.95

Sequence | gcPBM binding intensity (ln)
TGTTCTTTGTTCAGCGCATGTAAAATAAAATAAAAT [TGCATGCA_site629] | 9.04
TTTTTTTTTGAATACAGTACACAAGTGTTAAGTTTA [XGTACX_site7069] | 8.89
GATTGATTATATGTGTGTACTTATATGTTAAAAAAA [XGTACX_site4784] | 9.46
TATGAATATCTATACACACACATATATATACCCACT [CACACA_site4963] | 9.94
TATTTGAAAACATAGGTGCACATTATTTTATAATCT [GTGCAC_site9947] | 9.26
GAAAGAATAAAATTTACACACATATAAATATACATA [CACACA_site7125] | 9.45
AAAGGTGTCATATATGCACACAAAAGTAACACGCAC [CACACA_site8051] | 9.66
TTTATTCTTGAGTATTGTACATATGTGTTTGTATAT [XGTACX_site5706] | 9.38
AGGAGGATGCATATGGCACACATTATGAAACTGTCG [CACACA_site299] | 9.26
TTTTCCCTCTTATTCACACAAAAAAAATAAAATAAA [CACACA_site4656] | 8.9
ACACTAACATCATATCGTACATTTGTTAATTTATAA [XGTACX_site8654] | 9.45
TATTTATTTTTTTTTGTGCACTTAATATAATCTTAC | 9.24
TTTTTATTTATATGATACTTATATATATATATATAT [CACACA_negctrl_site462] | 9.26
TCTTTTAAAAAAATTTGTACATATTTTTTGTATTAT [XGTACX_site67] | 9.16
TTCTTAATATTGCATGCACACTATATAATAATTGAA [CACACA_site4720] | 9.29
ATACATACAAAAATTTGTACATATTTCCAATAATGT [XGTACX_site2658] | 9.15
GAAAAAACGAAAAAAATACACACCTGAAAAGATATG [CACACA_site887] | 9.61
GCCATAATATGACATACACACACAAAAAAAAAAAAA [CACACA_site8353] | 9.7
AAATTTCCATTTGGGTGTACATGTGAAACTACAAAG [XGTACX_site208] | 9.13

Sequence | gcPBM binding intensity (ln)
TATTTATCTATTTTGTTATATAATAAAATAAAATAA [CACACA_negctrl_site281] | 8.75
AAACAATTGAATAAATGTACAGATACATTTTTTTAA [XGTACX_site5386] | 8.99
AAAAATAAACAAAATTGTACACATTACATACATATA [XGTACX_site966] | 9.6
TATATATATATATGTAGTACTCAATATTGTAGATTA [XGTACX_site3856] | 9.1
AAATATATGTATATATGTACATATGTGTGCTATCAT [XGTACX_site1604] | 9.45
TAATTTTTTTTTAATTGTACATGTGAATATATTTCA [XGTACX_site4115] | 9.18
GTTTACATTTTAAGAAGTACAAAATTTATGGTTAAA [XGTACX_site450] | 9.07
TTTAAATACAGACATACACACATACACAGACATATA [CACACA_site4460] | 9.91
AAAAAAAACAGACACACACACATACAAAATATATAT [CACACA_site1449] | 10.2
ATATTTTTATGTACTTCAAAAAAAAAGAAAAACAAA [CACACA_negctrl_site970] | 9.05
CTCTATTGTTAAAAGGTGCTTTTATGATTTTATATA [GTGCAC_site9409] | 9.35
TATAGTTTTGAAAACAAACACACAAAAAAAAAAAAA [CACACA_site1691] | 9.26
AAGAGGTTAATGAAATGTACACATATATATATATAT [XGTACX_site1861] | 9.3
TTTTTTTTCTATGTGGTGCACATTATTTTTTTTTTT | 9.41
ATAATTTCACAAATAGTGCAAAAATTAGTAAGAATA [GTGCAC_site9648] | 9.25
TTTTATAAATATTATACATGCATAATGATAAAAAAA [TGCATGCA_site927] | 9.09
AAGAAAAGAACAAGAGCATGCACTTAATAAGAATAA [TGCATGCA_site818] | 9.24
TTAATATATTTTAAAAGTACATAATATTATTTTTTA [XGTACX_site3642] | 8.88
ATACAAAAGGGGAATACACACACATATATATATATA [CACACA_site8694] | 9.65
